# Whole data set: some 33,000 sequences, median “E-score (-0.5 to 0.5)” near -0.035, cut for the highest 2% near 0.35. Some of the results follow.
# Target: T1, Pdr3 (UniProt P33200)
# T1 sequence: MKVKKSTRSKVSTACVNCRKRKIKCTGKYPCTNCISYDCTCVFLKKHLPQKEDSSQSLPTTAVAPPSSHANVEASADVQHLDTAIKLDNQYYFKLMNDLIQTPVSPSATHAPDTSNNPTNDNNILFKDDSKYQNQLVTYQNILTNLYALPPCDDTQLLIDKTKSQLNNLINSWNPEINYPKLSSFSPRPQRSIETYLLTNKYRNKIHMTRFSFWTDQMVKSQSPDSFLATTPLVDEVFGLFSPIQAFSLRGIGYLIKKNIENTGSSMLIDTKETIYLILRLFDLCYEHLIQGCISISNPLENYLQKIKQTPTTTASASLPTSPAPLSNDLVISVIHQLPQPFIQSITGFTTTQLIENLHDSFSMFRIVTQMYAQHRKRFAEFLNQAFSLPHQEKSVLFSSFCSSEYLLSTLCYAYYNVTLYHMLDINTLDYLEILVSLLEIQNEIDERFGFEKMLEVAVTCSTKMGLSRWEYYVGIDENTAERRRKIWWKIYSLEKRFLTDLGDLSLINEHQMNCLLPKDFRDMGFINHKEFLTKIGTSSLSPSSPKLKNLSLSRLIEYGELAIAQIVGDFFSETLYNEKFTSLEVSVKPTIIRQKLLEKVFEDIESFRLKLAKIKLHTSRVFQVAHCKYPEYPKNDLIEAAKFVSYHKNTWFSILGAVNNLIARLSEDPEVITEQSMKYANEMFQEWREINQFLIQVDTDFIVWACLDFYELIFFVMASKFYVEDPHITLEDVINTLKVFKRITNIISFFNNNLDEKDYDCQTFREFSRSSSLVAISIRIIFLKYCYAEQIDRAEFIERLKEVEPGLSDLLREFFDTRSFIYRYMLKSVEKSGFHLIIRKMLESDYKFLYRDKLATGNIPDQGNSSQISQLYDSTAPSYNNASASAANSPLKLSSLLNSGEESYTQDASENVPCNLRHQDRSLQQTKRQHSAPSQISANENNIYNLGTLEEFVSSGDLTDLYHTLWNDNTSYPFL
# Assay: PBM E-score (8-mer binding enrichment) (E-score (-0.5 to 0.5)); higher = stronger / more preferred TF binding; most listed sequences are background and not binding sites
# Details: protein concentration: 200 nM; construct: GST-full length
# Summary of the method: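 E-scores (a modified Wilcoxon-Mann-Whitney statistic) were assigned by the Universal PBM Analysis Suite to every ungapped eight-base word pooled with its reverse complement. The input came from universal all-10-mer Agilent arrays made double-stranded by primer extension and probed with GST-tagged yeast transcription factors at about 100-200 nM. Fluorescent anti-GST detected bound protein, and masliner normalised the scans.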
row,Sequence,PBM E-score
1,GAATCCGC,0.296
2,TAGGACGA,-0.0994
3,CCGACCGC,-0.0222
4,ACGCGTCA,-0.0423
5,GTCTGACA,0.159
6,AGCTCGCC,0.0497
7,GCATCACA,-0.0216
8,GTCTTGCA,-0.066
9,AATCTACT,0.0902
10,GCATCGAA,-0.2
11,GCCTACAC,-0.175
12,CTGCGGGA,0.114
13,ATTCGTGG,-0.038
14,AGACCGTG,-0.107
15,ACGTGAGC,-0.0523
16,CACATCGG,-0.0207
17,GGCACCTA,0.00429
18,AGCATCTA,-0.0841
19,AGAGAATA,-0.0195
20,AAACATTG,-0.0839
21,AGTAATTC,0.153
22,AGTCGAGC,-0.215

row,Sequence,PBM E-score
1,TCCCTTCA,-0.283
2,ACACCCAG,-0.0474
3,AATAAGGG,-0.119
4,CTATCCAA,-0.229
5,AACATCGG,0.145
6,ATTTAAGC,0.0284
7,CGAATCCA,0.0811
8,TGTATACA,-0.0124
9,GTGCATTA,-0.0778
10,GCAGCCTA,-0.227
11,AGCTGACG,-0.142
12,GGACCAAC,0.107
13,CGACATGA,0.0638
14,TAGCTTCA,-0.278
15,CTACTTCC,0.144
16,TAGTGATA,-0.251
17,CGAGGTAC,-0.0877
18,AAATGGGC,0.0103
19,ATATTCTA,0.055
20,CTTCATTA,-0.0304
21,GACGTAGC,-0.228
22,ACGCTACG,-0.084

row,Sequence,PBM E-score
1,CTGTCCTC,-0.0393
2,GTCAGGTA,-0.0512
3,ATAGAGCA,-0.0482
4,CGTAAACA,0.0488
5,GTATGTGA,-0.0803
6,CATATGTA,-0.206
7,GTTGCTGA,-0.0444
8,CCTTTTCC,0.0495
9,ACAAACAC,0.129
10,GGTCAACA,0.0754
11,CATTTTGC,0.0786
12,CATCAACC,-0.0565
13,AACCAGCG,0.0704
14,AGGGATAC,-0.128
15,CAACACCA,-0.194
16,GGTGATGA,0.0492
17,GGAGATGA,0.094
18,AAACGAAC,0.0483
19,CGCTACCA,0.051
20,TACGAGCA,-0.105
21,GATTCCTA,0.0205
22,ACTAGAAA,-0.213

row,Sequence,PBM E-score
1,AACCCAAC,-0.0685
2,TAGTCCCA,-0.187
3,ACTTTGAC,-0.0538
4,ATGAAGCA,-0.152
5,CTCAATAC,-0.0754
6,GTTCATGA,0.122
7,AGCGCATG,-0.0684
8,CATTAGCG,-0.00416
9,AGCAGAAA,0.00936
10,ATGCTCAG,0.0157
11,AGAGATGA,-0.055
12,GCAATGAC,-0.258
13,CGGTAGTC,0.0361
14,TCCCACAA,-0.0275
15,CCATTAAG,-0.0621
16,AAAACATT,-0.114
17,AGCATCGA,-0.0594
18,AACATCTT,-0.0399
19,TGTGCGAA,-0.184
20,ATGCAAGA,-0.134

# Reference: the supplement of paper PMC3334620
